Reference: the BET-seq Pho4 binding data (Le et al. 2018)
The list shows a part of the results. The energies were worked out here from pooled read counts, against the library average; single values are noisy.

The sequences below were run against T1, Pho4 (S. cerevisiae) (UniProt P07270) (assay: relative binding free energy (BET-seq); higher = weaker binding). Conditions: reference: library average.
T1 sequence: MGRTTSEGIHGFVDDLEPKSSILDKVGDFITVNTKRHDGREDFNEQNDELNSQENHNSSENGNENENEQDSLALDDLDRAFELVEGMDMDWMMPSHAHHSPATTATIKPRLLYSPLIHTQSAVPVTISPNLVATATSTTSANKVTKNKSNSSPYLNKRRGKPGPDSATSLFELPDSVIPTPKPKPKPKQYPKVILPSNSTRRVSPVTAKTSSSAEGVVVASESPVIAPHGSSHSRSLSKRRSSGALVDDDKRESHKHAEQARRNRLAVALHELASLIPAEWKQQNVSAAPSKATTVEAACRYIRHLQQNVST

Sequence	relative binding free energy
AGCTTCACGTGAGTTA	0.49 kcal/mol
TGTGGCACGTGTCAGT	-0.18 kcal/mol
TTATGCACGTGGAGCA	-0.02 kcal/mol
TTCATCACGTGATAGG	0.17 kcal/mol
AGTTTCACGTGGTATG	0.31 kcal/mol
TGTGTCACGTGACTTT	0.1 kcal/mol
GCGTTCACGTGTGGAT	0.23 kcal/mol
TAAAGCACGTGGCGTG	-0.09 kcal/mol
TAGATCACGTGGATTG	0.35 kcal/mol
AAGAGCACGTGAGTTG	0.2 kcal/mol
TGTAGCACGTGCGGTT	-0.07 kcal/mol
TCAGGCACGTGTGTTG	0.02 kcal/mol
ATTTGCACGTGAGTCT	0.13 kcal/mol
TGTAGCACGTGAATGA	0.07 kcal/mol
CGTATCACGTGTTAGG	0.1 kcal/mol
GGGCTCACGTGAGTTA	0.36 kcal/mol
CTAGTCACGTGGGGGT	-0.19 kcal/mol
TTTAACACGTGTGTAG	-0.01 kcal/mol
TAGCACACGTGGTATG	-0.07 kcal/mol
GAAAGCACGTGAGGGG	0.16 kcal/mol
GACGTCACGTGGGTTT	0.06 kcal/mol
GTACTCACGTGTTAGG	0.17 kcal/mol
TGCAGCACGTGTTAGT	0.03 kcal/mol

Sequence	relative binding free energy
ATGGTCACGTGGTCGC	-0.04 kcal/mol
TGCGTCACGTGCTTGG	-0.04 kcal/mol
CCTTTCACGTGTTGGG	0.25 kcal/mol
TATGACACGTGTTGTC	0.09 kcal/mol
CGTGCCACGTGAGTGG	0.03 kcal/mol
TACAGCACGTGTGTTG	-0.08 kcal/mol
CTAAGCACGTGAAGGG	0.17 kcal/mol
GTTTACACGTGTTGCG	0.24 kcal/mol
GTTCTCACGTGGGGCG	0.05 kcal/mol
ACCTGCACGTGGTGGG	-0.2 kcal/mol
GCTAGCACGTGTAAGG	0.13 kcal/mol
ATTGGCACGTGAGGAT	0.14 kcal/mol
AGATGCACGTGTTCGT	-0.15 kcal/mol
TGTGGCACGTGGTTGA	-0.14 kcal/mol
CGGGTCACGTGGCGAT	0.15 kcal/mol
ATTTGCACGTGGCATT	-0.09 kcal/mol
GCATTCACGTGTGGAG	0.35 kcal/mol
ATTAGCACGTGTCGTA	-0.16 kcal/mol
GGCTGCACGTGAGAGG	0.34 kcal/mol
CGTGACACGTGTGGGA	-0.01 kcal/mol
TTTTTCACGTGTTCAA	0.26 kcal/mol
TGAAGCACGTGCTGGG	-0.14 kcal/mol
GTAAACACGTGTAAGT	0.14 kcal/mol

Sequence	relative binding free energy
TTGGGCACGTGACTAG	-0.02 kcal/mol
AGCGTCACGTGTGAAT	0.1 kcal/mol
GAAGGCACGTGTCAGG	-0.04 kcal/mol
TAACGCACGTGAGGGG	0.18 kcal/mol
GGCGGCACGTGTTGCG	-0.12 kcal/mol
AGTTGCACGTGAGGCG	0.21 kcal/mol
CGTAGCACGTGTAGGG	0.01 kcal/mol
TGGGTCACGTGGTTGA	0.07 kcal/mol
GTTAGCACGTGGAGGG	0.03 kcal/mol
TACTTCACGTGTGTTT	0.28 kcal/mol
GAGTACACGTGGAATG	0.24 kcal/mol
TACTGCACGTGGGTTT	-0.19 kcal/mol
TTATGCACGTGGGTTG	-0.17 kcal/mol
TATTACACGTGCATTG	-0.01 kcal/mol
TACGTCACGTGCATGT	0.13 kcal/mol
GAGTGCACGTGGCGTA	-0.19 kcal/mol
AAAGGCACGTGACGGG	0 kcal/mol
GCTGTCACGTGGTGGG	0.02 kcal/mol
AGCTGCACGTGAGTGT	0.16 kcal/mol
GTTCGCACGTGATGTG	0.11 kcal/mol
GGTAACACGTGTTGAT	0 kcal/mol
TACGGCACGTGCGTGG	-0.19 kcal/mol
AGGGACACGTGTTCGG	-0.14 kcal/mol

Sequence	relative binding free energy
ACTTGCACGTGGTGTA	0.04 kcal/mol
AGGTTCACGTGATGGA	0.33 kcal/mol
GTATGCACGTGGTCGA	0.05 kcal/mol
TAGAACACGTGGGGGA	-0.1 kcal/mol
TCCGACACGTGGGGTG	-0.08 kcal/mol
ACGTGCACGTGCGTTT	-0.11 kcal/mol
TAAATCACGTGGCTGT	0.14 kcal/mol
AGTAACACGTGAGGTA	0.05 kcal/mol
TGTAGCACGTGGCAGG	-0.1 kcal/mol
AATGTCACGTGATTGA	0.16 kcal/mol
AGTTGCACGTGGGGCT	-0.2 kcal/mol
GAATTCACGTGTCGGG	0.29 kcal/mol
TTACTCACGTGTTAGT	0.14 kcal/mol
ATTGTCACGTGTTTTT	0.19 kcal/mol
TGCAGCACGTGTAAGG	-0.03 kcal/mol
TAGGTCACGTGAACAT	0.36 kcal/mol
GTGGGCACGTGATCGC	0.02 kcal/mol
TGTAGCACGTGTAAGC	0.04 kcal/mol
GTCATCACGTGTAAGG	0.31 kcal/mol
GGACTCACGTGTTAGT	0.3 kcal/mol
GGGAGCACGTGCGGAG	-0.09 kcal/mol
CAATACACGTGTGTTG	0.09 kcal/mol
GTATGCACGTGTGTCT	-0.07 kcal/mol

Sequence	relative binding free energy
TATTCCACGTGAAGGT	0.27 kcal/mol
TGTATCACGTGTCTGC	0.19 kcal/mol
CGGGTCACGTGGGTTA	0.03 kcal/mol
AGATCCACGTGTTATT	0.14 kcal/mol
AGGTTCACGTGGCATG	0.13 kcal/mol
TGTTGCACGTGGATGT	0.03 kcal/mol
CCGTTCACGTGTTGGC	0.42 kcal/mol
GATTCCACGTGCGGGG	0.09 kcal/mol
GCGGCCACGTGGGAGT	-0.12 kcal/mol
TGTTTCACGTGAGTAT	0.29 kcal/mol
AGTGACACGTGGTGCA	-0.13 kcal/mol
CAGCTCACGTGAGGGG	0.28 kcal/mol
GTAAACACGTGTTCTG	0.16 kcal/mol
TCGTGCACGTGAGGAG	0.34 kcal/mol
AGGTACACGTGTGCTT	0.04 kcal/mol
CTTATCACGTGGGTCT	0.12 kcal/mol
GCGTTCACGTGGTAGA	0.34 kcal/mol
ATTATCACGTGGAGTC	0.13 kcal/mol
TAGGGCACGTGGTCGT	-0.2 kcal/mol
TGAGGCACGTGGGTAT	-0.19 kcal/mol
GTCGTCACGTGGTTTA	0.06 kcal/mol
TGGATCACGTGGACGG	0.39 kcal/mol
GGCTGCACGTGGGTGG	-0.05 kcal/mol
